Publication PMC4336329 (PLoS ONE, 2015)
About 14,000 (4.5%) of roughly 310,000 compounds showed an effect of 50% or more. Effects have a minus sign here. The list shows a part of the results.

Target: human ether-à-go-go-related gene (hERG) potassium channel (human, UniProt Q12809)
Assay: primary screen, population patch clamp on CHO cells stably expressing hERG
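Note: peak tail current of the secondary pulse compared with the same well before compound.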

Sequence of human ether-à-go-go-related gene (hERG) potassium channel (Q12809 whole entry, looked up): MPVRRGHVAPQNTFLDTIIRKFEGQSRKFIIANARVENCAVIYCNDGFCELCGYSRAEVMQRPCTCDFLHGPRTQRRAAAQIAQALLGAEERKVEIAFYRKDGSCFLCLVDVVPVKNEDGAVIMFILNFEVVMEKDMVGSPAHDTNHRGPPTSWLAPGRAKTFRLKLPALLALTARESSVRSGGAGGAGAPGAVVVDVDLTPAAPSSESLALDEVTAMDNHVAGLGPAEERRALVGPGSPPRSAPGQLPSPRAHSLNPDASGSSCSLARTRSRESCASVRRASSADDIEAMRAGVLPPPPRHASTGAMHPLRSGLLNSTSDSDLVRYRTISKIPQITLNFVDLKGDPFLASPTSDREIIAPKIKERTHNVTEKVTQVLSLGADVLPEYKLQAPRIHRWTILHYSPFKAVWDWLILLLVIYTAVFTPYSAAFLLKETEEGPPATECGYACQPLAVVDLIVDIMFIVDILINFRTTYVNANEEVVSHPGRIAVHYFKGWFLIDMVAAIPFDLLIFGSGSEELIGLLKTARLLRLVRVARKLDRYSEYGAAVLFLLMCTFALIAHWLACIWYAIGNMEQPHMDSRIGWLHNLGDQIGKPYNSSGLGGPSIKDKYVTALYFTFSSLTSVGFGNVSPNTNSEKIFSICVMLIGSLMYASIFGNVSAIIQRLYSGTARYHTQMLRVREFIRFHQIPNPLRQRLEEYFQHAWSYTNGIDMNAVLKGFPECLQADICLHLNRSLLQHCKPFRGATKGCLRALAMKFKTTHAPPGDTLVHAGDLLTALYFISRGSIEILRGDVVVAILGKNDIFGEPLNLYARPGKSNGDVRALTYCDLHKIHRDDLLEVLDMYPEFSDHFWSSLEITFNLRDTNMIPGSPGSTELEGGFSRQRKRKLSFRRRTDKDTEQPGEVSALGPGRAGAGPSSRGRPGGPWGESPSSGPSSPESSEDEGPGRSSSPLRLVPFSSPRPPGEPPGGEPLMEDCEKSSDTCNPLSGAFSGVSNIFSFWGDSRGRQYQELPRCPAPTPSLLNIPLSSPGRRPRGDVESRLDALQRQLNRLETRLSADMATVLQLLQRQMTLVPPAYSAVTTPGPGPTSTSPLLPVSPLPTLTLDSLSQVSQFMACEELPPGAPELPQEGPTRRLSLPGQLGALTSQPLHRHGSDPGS

| Structure (SMILES) | hERG current change (%, negative = inhibition) at 10uM [%] |
| --- | --- |
| O=C(COc1ccc2c3c(c(=O)oc2c1)CCC3)N1C[C@H]2C[C@@H](C1)c1cccc(=O)n1C2 | -13.1 |
| CC(=O)c1c(C(=O)O)[nH]c(C(=O)O)c1C | 12.9 |
| O=C(COc1ccccc1Cl)Nc1ccc(CN2CCCCC2)cc1 | -33.7 |
| CCOC(=O)c1cnn2c(C(F)(F)F)cc(-c3ccco3)nc12 | -9.64 |
| COC(=O)c1ccc(Nc2nc3ccc(C)cc3n3cnnc23)cc1 | 9.32 |
| c1ccc(Cn2nnc3c(NCc4ccc5c(c4)OCO5)ncnc32)cc1 | -6.92 |
| Cc1ccc(N2CC(=O)N(NC(=O)CN3CCN(c4ccccc4)CC3)CC2=O)cc1 | 18.3 |
| O=C(C1CC1)N1CCc2cc(S(=O)(=O)NCc3ccccc3)ccc21 | 12.3 |
| C/C(=N\NC(=O)c1nc2ccccn2c1C)c1cc2ccccc2o1 | -63 |
| CC(C)c1ccc(NC(=O)N(CCc2nc3ccccc3[nH]2)C2CCCC2)cc1 | -8.09 |
| Cc1cc(C)n2nc(C(=O)N/N=C/c3cn(C)nc3C)nc2n1 | 20.3 |
| CCn1c(SC)nnc1C1CCN(S(=O)(=O)c2ccc(OC)cc2)CC1 | -4.3 |
| Cc1cccc(C(=O)NC(C)c2ccc(-n3ccnc3)cc2)c1C (stereo not shown) | -42.2 |
| Cc1ccnc(NC(=O)Cc2ccc(F)cc2)n1 | -3.31 |
| O=C(Nc1ccc2nc(-c3cccs3)[nH]c2c1)c1ccco1 | -8.17 |
| COc1cccc(Nc2nc3ccccc3nc2NS(=O)(=O)c2ccc(NC(C)=O)cc2)c1 | 24.3 |
| COc1cccc(N(C(=O)c2snc(C(N)=O)c2N)C(C(=O)NCC2CCCO2)c2ccc3ncccc3c2)c1 (stereo not shown) | -16.8 |
| CCOC(=O)/C=C/C(=O)OCc1csc(CC(=O)Nc2ccccc2C)n1 | -1.99 |
| COc1ccc(C(=O)Nc2ccc3[nH]ncc3c2)cc1 | 11.9 |
| COc1ccc(C2C(C(N)=O)=C(C)Nc3ncnn32)cc1 (stereo not shown) | -4.65 |
| COc1ccc(OCC(O)CN(CC(O)COc2ccc(OC)cc2)c2cccc(O)c2)cc1 (stereo not shown) | 2.41 |
| O=C(NCc1cccnc1)c1cc(Sc2ccccc2Cl)nc2ccccc12 | -5.45 |
| Cc1nc(-c2ccc(NC(=O)CC(C)C)cc2)cs1.Cl | 7.49 |
| CC(C(=O)Nc1ccc(Cl)cc1Cl)N1C(=O)NC2(CCCC2)C1=O (stereo not shown) | -3.64 |
| CCCNC(=S)N1CCC(C(=O)c2ccc(F)cc2)CC1 | -8.84 |
| COc1ccc(-c2nn(-c3ccccc3)cc2C(=O)O)cc1 | 19.2 |
| CCCCC(=O)NC(=S)NNC(=O)CC | 12.3 |
| Cc1cccc(NC(=O)[C@H](NC(=O)[C@@H]2Cc3ccccc3CN2)c2ccccc2)c1 | -54.4 |

| Structure (SMILES) | hERG current change (%, negative = inhibition) at 10uM [%] |
| --- | --- |
| CCO[C@@H]1OC(C(=O)O)=C[C@H](C)[C@H]1CCCO | 20.7 |
| CC(NC(=O)c1ccccc1Br)c1nnc(SCc2ccc([N+](=O)[O-])cc2)n1C (stereo not shown) | -28.4 |
| Cn1nc(C(F)(F)F)c(C(=O)Nc2ccc(C(F)(F)F)cc2)c1Cl | -8.92 |
| CCN(CC)c1nc(Nc2ccc([N+](=O)[O-])cc2)nc(N(CC)CC)n1 | 11.1 |
| CC(C)NC(=O)COC(=O)c1ccc(S(=O)(=O)N2CCCC2)cc1 | 21.1 |
| CCOC(=O)Cn1c(CN2CC(C)OC(C)C2)nc2c1c(=O)n(C)c(=O)n2C (stereo not shown) | 22.2 |
| Cc1ccc(NC(=O)c2cc(NC(=O)CCCC(=O)O)ccc2Cl)cc1Cl | 21.3 |
| Cc1ccc(C(=O)Nc2nc(C(C)(C)C)cs2)s1 | -42.4 |
| COc1cc(OC)cc(-c2c(-c3ccc(F)cc3)c3cc(-c4ccc5[nH]ccc5c4)ccc3n2C)c1 | 9.57 |
| CC(=O)Nc1ccc(-c2csc(NCc3ccco3)n2)cc1 | 3.3 |
| CCOc1ccccc1C(=O)NCC(=O)N1CCN(Cc2ccc3c(c2)OCO3)CC1 | -17.3 |
| CC(=O)c1c(C(C)=O)c(C)n(Cc2ccc(Cl)cc2)c1C | -14.5 |
| CCOc1cccc(C2C(C(=O)c3ccc(C)o3)=C(O)C(=O)N2Cc2ccncc2)c1 (stereo not shown) | 9.8 |
| O=C(NCc1ccccc1)C1CCN(c2nc(-c3ccccc3)nc3c2CCC3)CC1 | -24.3 |
| CCCCN(CCCC)CCCNC(=O)c1ccc2nc(-c3ccccc3NC(C)=O)c(=O)[nH]c2c1 | 2.39 |
| CCCCCCC1CC(C)(C(=O)C[NH2+]c2nncs2)OC1=O.[Br-] (stereo not shown) | -66.3 |
| Nc1nccnc1C(=O)OCC(=O)NCCc1ccc(S(N)(=O)=O)cc1 | 11.1 |
| COc1ccc(OC)c(-c2csc3nnc(SCC(=O)Nc4ccc(NC(C)=O)cc4)n23)c1 | 2.89 |
| O=C(NCCc1ccc(F)cc1)c1cc(=O)c2ccccc2o1 | 0.701 |
| Cc1ccc(C2=NN(C)c3nc4ccccc4n3C2)cc1 | 6.76 |
| C/C(=N\NC(=O)c1cccc(S(=O)(=O)Nc2cccc(Cl)c2)c1)c1cccs1 | 5.27 |
| CCOC(=O)c1ccc(N=Nc2c(C)[nH]n(-c3ccccc3)c2=O)cc1 | 16.1 |
| C=C(C)Cn1c(C(C)NC(=O)CCC)nc2ccccc21 (stereo not shown) | 13.1 |
| O=C(O)C(=O)O.Oc1ccccc1NCC(O)Cn1ccc2ccccc21 (stereo not shown) | 13.4 |
| Cc1cccc(N2CCN(C(=O)CCC(=O)N3CC(C)Oc4ccccc43)CC2)c1C (stereo not shown) | -13 |
| CCCN(CCC)C(=O)CSc1nc2c(sc(=S)n2-c2ccc(OCC)cc2)c(=O)[nH]1 | -1.18 |
| Cn1cc(CN2CCCCC2C(=O)Nc2ccc(-n3cccn3)cc2)cn1 (stereo not shown) | 10.3 |
